The results in this text go back to paper PMC7320043.

The chains behind the UniProt entries cited, without tags or fusion partners. Where a name states a change or a piece, a line headed by the entry shows the natural chain unless it says otherwise. A line that says so, or that is headed by a name, gives the form on record, which may keep a tag or linker. Residues count along the entry.
UniProt Q13309: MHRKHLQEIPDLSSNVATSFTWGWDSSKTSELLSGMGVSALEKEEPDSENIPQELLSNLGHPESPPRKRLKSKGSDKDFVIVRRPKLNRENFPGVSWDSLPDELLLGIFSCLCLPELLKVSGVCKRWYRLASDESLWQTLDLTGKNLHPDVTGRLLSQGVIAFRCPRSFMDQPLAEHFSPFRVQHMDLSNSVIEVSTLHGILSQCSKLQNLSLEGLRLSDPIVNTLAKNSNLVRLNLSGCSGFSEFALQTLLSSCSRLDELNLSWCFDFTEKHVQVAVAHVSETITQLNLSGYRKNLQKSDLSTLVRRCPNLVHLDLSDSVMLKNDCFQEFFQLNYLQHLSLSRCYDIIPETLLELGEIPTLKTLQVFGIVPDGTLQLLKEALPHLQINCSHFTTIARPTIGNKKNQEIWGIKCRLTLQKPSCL
UniProt P67870: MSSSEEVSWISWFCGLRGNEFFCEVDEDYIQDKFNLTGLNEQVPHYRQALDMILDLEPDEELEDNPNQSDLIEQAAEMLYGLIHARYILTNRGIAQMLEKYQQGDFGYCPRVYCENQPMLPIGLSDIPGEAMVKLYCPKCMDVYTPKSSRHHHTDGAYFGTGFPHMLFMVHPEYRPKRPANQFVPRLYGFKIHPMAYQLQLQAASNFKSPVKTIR
in vitro transcribed and translated Uap1 (Q16222-2, form named): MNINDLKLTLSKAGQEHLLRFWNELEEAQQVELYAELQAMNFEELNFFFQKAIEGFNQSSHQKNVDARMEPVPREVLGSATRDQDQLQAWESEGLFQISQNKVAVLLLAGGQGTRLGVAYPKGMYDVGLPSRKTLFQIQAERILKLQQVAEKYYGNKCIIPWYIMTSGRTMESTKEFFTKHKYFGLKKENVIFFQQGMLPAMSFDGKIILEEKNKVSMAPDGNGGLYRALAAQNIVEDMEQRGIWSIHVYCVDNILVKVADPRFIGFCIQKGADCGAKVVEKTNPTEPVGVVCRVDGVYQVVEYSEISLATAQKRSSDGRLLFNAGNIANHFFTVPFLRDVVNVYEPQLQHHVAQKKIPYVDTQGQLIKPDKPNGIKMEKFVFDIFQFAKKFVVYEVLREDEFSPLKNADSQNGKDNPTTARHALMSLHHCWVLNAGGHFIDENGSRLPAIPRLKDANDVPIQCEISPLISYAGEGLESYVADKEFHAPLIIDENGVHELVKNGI
UniProt Q9Y3C8: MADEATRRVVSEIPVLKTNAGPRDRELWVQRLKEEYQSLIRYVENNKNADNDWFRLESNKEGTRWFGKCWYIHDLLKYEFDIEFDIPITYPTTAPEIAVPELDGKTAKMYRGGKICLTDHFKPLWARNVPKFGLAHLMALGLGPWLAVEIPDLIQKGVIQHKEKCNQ
UniProt O60244, residues 1053-1282: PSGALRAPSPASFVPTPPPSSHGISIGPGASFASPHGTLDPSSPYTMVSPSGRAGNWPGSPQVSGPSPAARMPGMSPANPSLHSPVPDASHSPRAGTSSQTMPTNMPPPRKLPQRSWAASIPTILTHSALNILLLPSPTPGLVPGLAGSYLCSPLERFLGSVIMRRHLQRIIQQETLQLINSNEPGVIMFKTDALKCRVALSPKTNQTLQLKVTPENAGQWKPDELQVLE
UniProt P63208: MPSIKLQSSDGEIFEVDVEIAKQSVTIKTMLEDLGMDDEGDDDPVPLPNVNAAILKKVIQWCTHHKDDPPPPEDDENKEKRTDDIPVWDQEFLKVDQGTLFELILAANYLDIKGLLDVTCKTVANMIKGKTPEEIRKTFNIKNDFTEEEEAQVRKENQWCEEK
UniProt P29144, residues 879-1141: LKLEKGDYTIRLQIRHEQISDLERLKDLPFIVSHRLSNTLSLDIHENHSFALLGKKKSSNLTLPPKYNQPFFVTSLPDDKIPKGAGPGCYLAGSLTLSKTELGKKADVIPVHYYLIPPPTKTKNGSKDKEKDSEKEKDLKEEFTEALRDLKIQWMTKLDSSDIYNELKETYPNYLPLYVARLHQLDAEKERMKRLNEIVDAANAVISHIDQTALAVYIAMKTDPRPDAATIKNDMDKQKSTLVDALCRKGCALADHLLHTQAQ
UniProt Q9UHP3, residues 323-450: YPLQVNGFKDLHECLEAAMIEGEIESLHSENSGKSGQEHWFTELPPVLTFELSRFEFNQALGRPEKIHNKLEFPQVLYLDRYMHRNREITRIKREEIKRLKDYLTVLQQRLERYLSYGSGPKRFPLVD
UniProt Q9GZX5, residues 310-532: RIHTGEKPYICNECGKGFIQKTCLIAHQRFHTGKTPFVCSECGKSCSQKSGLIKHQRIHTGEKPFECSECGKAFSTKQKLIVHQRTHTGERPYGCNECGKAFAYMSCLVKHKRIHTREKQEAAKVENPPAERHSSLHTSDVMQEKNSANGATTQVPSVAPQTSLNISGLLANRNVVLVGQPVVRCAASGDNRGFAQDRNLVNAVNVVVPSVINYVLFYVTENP

Experiment [1] deals with Fbxl17 two-hybrid bait, FBD and LRRs (321-701aa) (human) (UniProt Q9UF56). Description: two-hybrid; Matchmaker Gold system (Clontech); bait Fbxl17 aa 321 to 701 in pGBKT7; screen of a normalized universal human cDNA library (Mate & Plate) with prey fused to the Gal4 activation domain.
For experiment [2], the target named is FLAG-Fbxl17 (full-length Fbxl17, 1-701aa) (human) (UniProt Q9UF56). The experiment is described as follows: co-IP; HEK293T cells expressing FLAG-Fbxl17 constructs; immunoprecipitates using anti-FLAG beads probed for endogenous Klhl12 or for co-expressed HA-tagged Uap1, Ufc1 or Csnk2B with anti-HA antibody.
Experiment [3] deals with FLAG-Fbxl17∆10LRR (1-384aa) (human) (UniProt Q9UF56). Described as above.
Experiment [4] concerns the target FLAG-Fbxl17∆3LRR (1-586aa) (human) (UniProt Q9UF56). Described as above.
In experiment [5] the target is FLAG-Fbxl17ΔFbox (Δ324-358aa) (human) (UniProt Q9UF56). Described as above.
Experiment [6] concerns the target FLAG-Fbxl17 (full-length Fbxl17, 1-701aa) (human) (UniProt Q9UF56). The experiment is described as follows: co-IP; HEK293T cells co-transfected with Skp1, Cullin1, Rbx1 and N-terminally FLAG-tagged Fbxl17 constructs; 48 h post transfection lysed, immunoprecipitated with FLAG antibodies, blotted for the associated SCF subunits; binding quantified relative to WT Fbxl17.

The target in experiment [7] is FLAG-Fbxl17ΔFbox (Δ324-358aa) (human) (UniProt Q9UF56). The experiment is described as above.
Experiment [8] addresses GST-Fbxl17(321-701aa) (human) (UniProt Q9UF56). Description: pull-down; bacterially expressed and purified GST proteins immobilised on a GST column, incubated with in vitro transcribed and translated Uap1 (rabbit reticulocyte lysate); SDS-PAGE, membranes probed with antibodies to Uap1; only the target purified.
Experiment [9] concerns the target GST-Fbxl17Δ10LRR(321-383aa) (human) (UniProt Q9UF56). The description is as above.
For another experiment, the target named is GST-Skp2 (UniProt Q13309). The description is as above.

These are yes or no findings as the source states them, for the method shown. For part of these data: In cells and extracts the contact can be indirect. Some entries that bind do so weakly or less than the wild type.

Take “Casein kinase 2, beta polypeptide, two-hybrid prey (from UniProt P67870 1-123) (domain or fragment)”: the binding entry in [1] is reported as “binds”.

As for “ClpX caseinolytic peptidase × homolog (E. coli), two-hybrid prey (from UniProt O76031 42-341) (domain or fragment)”, the binding entry in experiment [1] was “binds”.

Turning to HA-Csnk2B (from UniProt P67870 1-215), the binding entry in [2], in experiment [3] and in experiment [4] was “binds” each time.

With “HA-tagged Uap1 (from UniProt Q16222-2 1-505) (enzyme)”, the binding result in experiment [2] is recorded as “binds”; in [5] it was “binds”; in experiment [3], “no binding”; in experiment [4], “binds”.

As for “HA-tagged Ufc1 (from UniProt Q9Y3C8 1-167) (enzyme)”, the binding result is on record as “binds” in experiment [2], “no binding” in experiment [3] and “binds” in experiment [4].

For “Mediator complex subunit 14, two-hybrid prey (from UniProt O60244 1053-1282) (domain or fragment)”, the binding entry in experiment [1] is recorded as “binds”.

Turning to “Protein phosphatase 3, catalytic subunit, beta isozyme, two-hybrid prey (from UniProt P16298 381-496) (domain or fragment)”, the binding entry in [1] is “binds”.

Take Skp1 (from UniProt P63208 1-163): the binding result in [6] is “binds”; in experiment [7], “no binding”.

Turning to “Tripeptidyl peptidase II, two-hybrid prey (from UniProt P29144 879-1141) (domain or fragment)”, in experiment [1], the binding entry was “binds”.

With “UDP-N-acetylglucosamine pyrophosphorylase 1, two-hybrid prey (from UniProt Q16222-2 357-505) (domain or fragment)”, the binding result in [1] is “binds”.

For the substance “Ubiquitin specific peptidase 25, two-hybrid prey (from UniProt Q9UHP3 323-450) (domain or fragment)”, in experiment [1], the binding result is “binds”.

Regarding “Ubiquitin-fold modifier conjugating enzyme 1, two-hybrid prey (from UniProt Q9Y3C8 12-95) (domain or fragment)”, the binding entry in experiment [1] was “binds”.

Consider “Zinc finger protein 350, two-hybrid prey (from UniProt Q9GZX5 310-532) (domain or fragment)”, for which the binding result in experiment [1] is “binds”.

“in vitro transcribed and translated Uap1 (from UniProt Q16222-2 1-505) (enzyme)”: the binding result in experiment [8] is recorded as “binds”; in experiment [9] it was “no binding”; in the experiment with GST-Skp2 it was “no binding”.
